We go through 54 molecules from publication PMC4336329 (PLoS ONE, 2015).

Structures are written as SMILES. Among all 310,000 compounds or so, about 14,000 (4.5%) showed an effect of 50% or more. Effects have a minus sign here. Some of the results follow.
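Note: peak tail current of the secondary pulse compared with the same well before compound.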

human ether-à-go-go-related gene (hERG) potassium channel, sequence (Q12809 whole entry, looked up): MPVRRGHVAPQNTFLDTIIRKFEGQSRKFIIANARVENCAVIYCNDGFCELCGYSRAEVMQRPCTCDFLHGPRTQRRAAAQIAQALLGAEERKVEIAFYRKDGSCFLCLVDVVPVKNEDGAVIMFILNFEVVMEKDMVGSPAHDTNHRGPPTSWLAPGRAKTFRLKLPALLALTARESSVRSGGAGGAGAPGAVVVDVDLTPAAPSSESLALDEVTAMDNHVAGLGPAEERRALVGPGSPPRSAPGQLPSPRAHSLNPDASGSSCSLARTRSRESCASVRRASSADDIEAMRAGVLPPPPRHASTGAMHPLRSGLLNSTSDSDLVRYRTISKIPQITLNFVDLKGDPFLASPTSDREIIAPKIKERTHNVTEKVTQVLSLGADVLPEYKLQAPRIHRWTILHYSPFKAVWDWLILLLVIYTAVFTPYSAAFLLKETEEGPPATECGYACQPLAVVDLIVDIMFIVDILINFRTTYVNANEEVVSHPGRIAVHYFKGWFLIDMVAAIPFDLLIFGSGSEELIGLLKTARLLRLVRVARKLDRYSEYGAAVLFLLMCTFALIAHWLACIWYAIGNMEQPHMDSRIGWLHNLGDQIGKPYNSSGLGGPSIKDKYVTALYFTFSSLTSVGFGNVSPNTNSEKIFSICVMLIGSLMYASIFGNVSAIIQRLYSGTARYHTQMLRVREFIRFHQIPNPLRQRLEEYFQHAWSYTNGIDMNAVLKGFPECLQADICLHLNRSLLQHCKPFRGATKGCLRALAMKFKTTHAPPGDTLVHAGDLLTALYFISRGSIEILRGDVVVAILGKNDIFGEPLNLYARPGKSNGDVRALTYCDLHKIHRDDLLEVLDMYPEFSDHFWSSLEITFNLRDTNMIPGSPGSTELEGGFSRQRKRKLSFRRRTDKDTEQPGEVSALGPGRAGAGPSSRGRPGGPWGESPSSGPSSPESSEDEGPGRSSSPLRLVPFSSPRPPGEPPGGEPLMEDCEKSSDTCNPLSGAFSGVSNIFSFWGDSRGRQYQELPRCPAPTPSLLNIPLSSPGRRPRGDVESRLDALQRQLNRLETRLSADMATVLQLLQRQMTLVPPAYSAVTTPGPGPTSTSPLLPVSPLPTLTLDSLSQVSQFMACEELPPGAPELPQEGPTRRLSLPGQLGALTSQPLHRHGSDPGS

The assay concerns the target human ether-à-go-go-related gene (hERG) potassium channel (human, UniProt Q12809). The assay is described as follows: primary screen, population patch clamp on CHO cells stably expressing hERG.
Turning to `CCc1nc2ccccc2n1CC1CC1(Cl)Cl` (stereo not drawn), the “hERG current change (%, negative = inhibition) at 10uM” value came out at 2.4%.

As for `O=C1N(c2ccc(Cl)cc2)C(c2ccc(Cl)cc2)N2CCCN12` (stereo not drawn), the “hERG current change (%, negative = inhibition) at 10uM” value is listed as -16.7%.

For `COc1ccc(/C=N/NC(=O)c2[nH]c3ccc(Br)cc3c2-c2ccccc2)cc1`, the “hERG current change (%, negative = inhibition) at 10uM” value is on record as 7.87%.

For the molecule `CC(C)(C)NC(=O)C(c1ccc(F)cc1)N(Cc1ccco1)C(=O)CCC(=O)Nc1ccccn1` (stereo not drawn), the “hERG current change (%, negative = inhibition) at 10uM” value is -26.7%.

Turning to `CN(CCO)c1cc(N2CCC3(CC2)OCCO3)c2nonc2c1[N+](=O)[O-]`, the “hERG current change (%, negative = inhibition) at 10uM” value is given as 14.4%.

Consider `COc1ccc(-c2noc(N3CCC(C(=O)NCCCN4CCCC(C)C4)CC3)n2)cc1` (stereo not drawn), for which the “hERG current change (%, negative = inhibition) at 10uM” value was -39.1%.

`CCC(C)N1C(=O)N(C)C2NC(=O)NC21` (stereo not drawn): the “hERG current change (%, negative = inhibition) at 10uM” value was -2.9%.

Consider `COc1cccc(-c2cc(C(=O)N3CCN(c4ccccc4OC)CC3)no2)c1`, for which the “hERG current change (%, negative = inhibition) at 10uM” value came to 1.15%.

For the molecule `COCCOC(=O)C1=C(C)N=C2SCCC(=O)N2C1c1ccc(C(=O)OC)cc1` (stereo not drawn), the “hERG current change (%, negative = inhibition) at 10uM” value is on record as 7.26%.

`COc1ccc(-c2cc(C(=O)N/N=C/c3cc(OC)c(OC)cc3OC)c3ccccc3n2)cc1`: the “hERG current change (%, negative = inhibition) at 10uM” value is 15%.

In the case of `O=[N+]([O-])c1cc(C(F)(F)F)ccc1Sc1ccccn1`, the “hERG current change (%, negative = inhibition) at 10uM” value is given as -28.5%.

On to `Cc1nnc(SCC(=O)N2c3ccccc3C(C)(c3ccc(Cl)cc3)CC2(C)C)s1` (stereo not drawn), for which the “hERG current change (%, negative = inhibition) at 10uM” value turned out to be 1.05%.

As to `COc1ccc(NC(=O)CN(C)S(=O)(=O)c2ccc3c(c2)CC(C)N3C(C)=O)c(OC)c1` (stereo not drawn), the “hERG current change (%, negative = inhibition) at 10uM” value was -4.01%.

For `COC(=O)c1ccc(NC(=O)Nc2ccc(F)c(Cl)c2)cc1`, the “hERG current change (%, negative = inhibition) at 10uM” value is 15%.

Take `CC(C)(O)C#Cc1ccc(CN2CCN(Cc3ccccc3)C(CCO)C2)s1` (stereo not drawn): the “hERG current change (%, negative = inhibition) at 10uM” value was determined as 4.64%.

For the molecule `Cc1cc(NC(=O)CSc2nc3c(cc2C#N)CCC3)no1`, the “hERG current change (%, negative = inhibition) at 10uM” value came out at 26.7%.

On to `COc1ccc(Nc2ccccc2N)cc1.Cl`, for which the “hERG current change (%, negative = inhibition) at 10uM” value is listed as -1.13%.

As for `CCN1C(=O)/C(=C/c2ccc(OCc3ccc(C(=O)O)cc3)c(Cl)c2)NC1=S`, the “hERG current change (%, negative = inhibition) at 10uM” value was 43.2%.

Regarding `COc1cc(C)nc(OCCNS(=O)(=O)c2cc(C)ccc2C)n1`, the “hERG current change (%, negative = inhibition) at 10uM” value is -7.54%.

In the case of `CC(C(=O)Nc1ccccc1Cl)N(c1ccccc1)S(C)(=O)=O` (stereo not drawn), the “hERG current change (%, negative = inhibition) at 10uM” value was found to be 5.49%.

For the molecule `Nc1nonc1-n1nnc(C(=O)N/N=C/c2ccc(Cl)cc2Cl)c1CN1CCCCC1`, the “hERG current change (%, negative = inhibition) at 10uM” value was 10.7%.

Take `Cc1ccc(-c2nc(CCNC(=O)c3ccco3)cs2)cc1`: the “hERG current change (%, negative = inhibition) at 10uM” value is listed as -16%.

For the molecule `CN(C)c1ccc(CNC(=O)CN(C)S(=O)(=O)c2cccc3cccnc23)cc1`, the “hERG current change (%, negative = inhibition) at 10uM” value is listed as -6.28%.

For `CC(C)(C)c1ccc(C(=O)NCC(=O)OCC(=O)c2ccc3c(c2)-c2ccccc2C3)cc1`, the “hERG current change (%, negative = inhibition) at 10uM” value is given as -5.37%.

As to `COc1cc(OC)cc(C(=O)N[C@H](C(=O)OCC(=O)Nc2ccc(F)c(F)c2F)C(C)C)c1`, the “hERG current change (%, negative = inhibition) at 10uM” value is listed as -34.8%.

For the molecule `CC(=O)C[C@H](O)CC(=O)[C@H]1OC(=O)[C@H](C)C/C=C\Cc2ccccc21`, the “hERG current change (%, negative = inhibition) at 10uM” value is given as 9.09%.

As to `CC(C)(C)OC(=O)N1Cc2ccccc2C[C@H]1C(=O)NCC(=O)NC1CCCC1`, the “hERG current change (%, negative = inhibition) at 10uM” value came to 7.24%.

Regarding `COc1ccc(Cn2nnnc2C(c2cc3ccc(OC)cc3[nH]c2=O)N2CCCCCC2)cc1` (stereo not drawn), the “hERG current change (%, negative = inhibition) at 10uM” value is -13.6%.

For `Cc1cccc(CN(C(=S)Nc2c(C)cccc2C)c2cccnc2)c1`, the “hERG current change (%, negative = inhibition) at 10uM” value is reported as -9.13%.

In the case of `Cc1oc(-c2ccc(Cl)cc2)nc1CS(=O)CC(=O)NCCCN(C)C1CCCCC1` (stereo not drawn), the “hERG current change (%, negative = inhibition) at 10uM” value is recorded as -30%.

`CC(C)(C)C(=O)NC1(C(F)(F)F)NC(=O)N(CCc2ccccc2)C1=O` (stereo not drawn): the “hERG current change (%, negative = inhibition) at 10uM” value turned out to be 21.4%.

In the case of `CC(C)CCOc1ccc(C2(C)NC(=O)N(CN3CCOCC3)C2=O)cc1` (stereo not drawn), the “hERG current change (%, negative = inhibition) at 10uM” value worked out at 11.4%.

As for `Cc1cc(C)cc(C(=O)N(Cc2ccco2)c2c(N)n(Cc3ccccc3)c(=O)[nH]c2=O)c1`, the “hERG current change (%, negative = inhibition) at 10uM” value worked out at 17.1%.

As for `Cc1ccccc1-c1n[nH]c(=S)n1/N=C/C=C/c1ccco1`, the “hERG current change (%, negative = inhibition) at 10uM” value was 9.8%.

With `COc1cc([N+](=O)[O-])ccc1NC(=O)CN1CCCC1`, the “hERG current change (%, negative = inhibition) at 10uM” value is 3.84%.

Take `COc1cc(OC)c(OC)cc1/C=N/NC(=O)c1cccc(S(=O)(=O)N2CCOCC2)c1`: the “hERG current change (%, negative = inhibition) at 10uM” value is -3.28%.

For `O=C(NCCO)c1ccc2c3n(nc2c1)-c1ccccc1CO3`, the “hERG current change (%, negative = inhibition) at 10uM” value is given as 4.28%.

Take `CC(C)(C)NC(=O)CSc1nncn1NCc1c(Cl)cccc1Cl`: the “hERG current change (%, negative = inhibition) at 10uM” value is reported as -10.3%.

Consider `Cc1cc(NC(=O)c2noc3c2CCCCC3)no1`, for which the “hERG current change (%, negative = inhibition) at 10uM” value is -2.16%.

In the case of `CCn1ncc(Br)c1C(=O)Nc1ccccc1OC`, the “hERG current change (%, negative = inhibition) at 10uM” value was determined as 5.38%.

With `N#CCSc1nc2c(c(=O)n1Cc1ccccc1)C1(CCCC1)Cc1ccccc1-2`, the “hERG current change (%, negative = inhibition) at 10uM” value is -6.03%.

For `O=C(CCN1C(=O)/C(=C/c2ccc3c(c2)OCO3)SC1=S)Nc1ccccc1`, the “hERG current change (%, negative = inhibition) at 10uM” value was determined as 10%.

Consider `N#Cc1c(N)sc(=S)c2c1CCCC2`, for which the “hERG current change (%, negative = inhibition) at 10uM” value is on record as -1.64%.

Take `COc1cc(/C=N\NC(=O)CNC(=O)c2cccc([N+](=O)[O-])c2)ccc1O`: the “hERG current change (%, negative = inhibition) at 10uM” value is recorded as -7.02%.

As for `CCN1CCn2c1nc(N1CCCCC1)nc2=O`, the “hERG current change (%, negative = inhibition) at 10uM” value is -0.66%.

For the molecule `COCCN(C(=O)c1snc(C(N)=O)c1N)C(C(=O)NC1CCCCC1)c1ccc(F)cc1` (stereo not drawn), the “hERG current change (%, negative = inhibition) at 10uM” value was 16.9%.

Turning to `CNC(=S)N/N=C/c1cn(CCOc2cccc(OC)c2)c2ccccc12`, the “hERG current change (%, negative = inhibition) at 10uM” value is on record as 3.42%.

Consider `c1ccc(-c2[nH]ncc2CN2CCN(Cc3ccc4c(c3)OCO4)CC2)cc1`, for which the “hERG current change (%, negative = inhibition) at 10uM” value is given as -37.9%.

For the molecule `COc1cc(/C=C2\SC(=O)N(CCNC(=O)c3cnc(C)cn3)C2=O)cc(OC)c1OC`, the “hERG current change (%, negative = inhibition) at 10uM” value amounted to 9.78%.

With `CCn1cc(C(=O)N[C@H](C(=O)NCCCN2CCOCC2)C(C)C)c(=O)c2cc3c(cc21)OCO3`, the “hERG current change (%, negative = inhibition) at 10uM” value is reported as -2.69%.

As to `Cc1nc(NC(=O)CN2CCN(c3cccc(Cl)c3)CC2)sc1C(=O)N(C)C`, the “hERG current change (%, negative = inhibition) at 10uM” value is 7.94%.

Turning to `Cl.O=C(NN1CCN(Cc2ccccc2)CC1)c1ccc(N2CCOCC2)c([N+](=O)[O-])c1`, the “hERG current change (%, negative = inhibition) at 10uM” value was -66.6%.

For the molecule `O=C(NCc1ccc(F)cc1)C1CCC(=O)N1C1CCCCC1` (stereo not drawn), the “hERG current change (%, negative = inhibition) at 10uM” value is recorded as -3.36%.

For the molecule `FC(F)(F)c1nc2ccccc2nc1N/N=C/c1c(Cl)cccc1Cl`, the “hERG current change (%, negative = inhibition) at 10uM” value worked out at 13.9%.
